Source: PMC4336329 (PLoS ONE, 2015)
Hit rate of the full screen: of about 310,000 compounds, about 2,200 (0.71%) showed an effect of 50% or more. Effects have a minus sign here. The list shows a part of the results.

What follows are molecules tested against human ether-à-go-go-related gene (hERG) potassium channel (human, UniProt Q12809) (assay: primary screen, population patch clamp on CHO cells stably expressing hERG).
Chain of human ether-à-go-go-related gene (hERG) potassium channel (Q12809 whole entry, looked up): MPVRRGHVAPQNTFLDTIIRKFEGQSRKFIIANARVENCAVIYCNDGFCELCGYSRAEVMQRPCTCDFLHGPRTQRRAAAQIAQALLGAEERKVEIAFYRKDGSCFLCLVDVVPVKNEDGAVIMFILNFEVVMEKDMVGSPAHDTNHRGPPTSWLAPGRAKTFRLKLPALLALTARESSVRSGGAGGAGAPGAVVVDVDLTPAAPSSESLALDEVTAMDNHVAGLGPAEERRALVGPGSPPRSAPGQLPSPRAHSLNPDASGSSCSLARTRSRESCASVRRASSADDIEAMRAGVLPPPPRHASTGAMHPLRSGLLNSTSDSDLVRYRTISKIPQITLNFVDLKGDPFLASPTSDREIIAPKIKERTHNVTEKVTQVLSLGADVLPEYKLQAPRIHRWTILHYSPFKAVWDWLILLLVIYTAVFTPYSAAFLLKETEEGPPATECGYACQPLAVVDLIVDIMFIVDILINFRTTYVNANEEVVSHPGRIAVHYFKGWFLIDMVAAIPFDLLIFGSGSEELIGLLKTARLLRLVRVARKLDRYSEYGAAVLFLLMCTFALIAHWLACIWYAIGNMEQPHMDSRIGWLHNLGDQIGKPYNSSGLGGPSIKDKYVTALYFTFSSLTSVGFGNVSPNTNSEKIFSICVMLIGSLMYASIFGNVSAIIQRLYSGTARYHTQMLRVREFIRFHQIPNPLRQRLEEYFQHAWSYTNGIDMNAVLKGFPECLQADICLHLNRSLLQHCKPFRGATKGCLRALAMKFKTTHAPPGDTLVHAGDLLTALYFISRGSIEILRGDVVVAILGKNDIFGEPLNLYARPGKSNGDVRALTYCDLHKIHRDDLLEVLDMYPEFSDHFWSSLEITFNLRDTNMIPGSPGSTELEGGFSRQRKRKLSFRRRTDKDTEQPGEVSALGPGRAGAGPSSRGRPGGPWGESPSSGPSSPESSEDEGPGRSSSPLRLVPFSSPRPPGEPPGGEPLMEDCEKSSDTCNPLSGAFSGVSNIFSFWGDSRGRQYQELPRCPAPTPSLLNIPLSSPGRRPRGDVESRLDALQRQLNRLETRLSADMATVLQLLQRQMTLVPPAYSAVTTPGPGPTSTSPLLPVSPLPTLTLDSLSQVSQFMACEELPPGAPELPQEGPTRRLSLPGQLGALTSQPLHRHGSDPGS

First: Cc1ccc(S(=O)(=O)c2cnc3cc(C)nn3c2N)cc1
Second: COc1ccc(-c2cc(N)n(S(=O)(=O)c3ccc(F)cc3)n2)cc1OC
The “hERG current change (%, negative = inhibition) at 1uM” value of the first is lower: 2.93% for the first, 16.2% for the second.

First: Cc1coc2cc3oc(=O)c(Cc4ccccc4)c(C)c3cc12
Second: CCN(CC)c1ccc2c(C)c(-c3ccc(N)cc3)c(=O)oc2c1
The “hERG current change (%, negative = inhibition) at 1uM” value of the first is higher: 21.3% for the first, 6.42% for the second.

First: Cc1c(C(=O)N2CCc3ccccc3C2)oc2ccc(S(=O)(=O)N3CCCCCC3)cc12
Second: CCOc1ccccc1N(C)S(=O)(=O)c1ccc2c(c1)CC(C)N2C(=O)C1CC1 (centres unmarked)
The “hERG current change (%, negative = inhibition) at 1uM” value of the first is lower: -3.14% for the first, 7.72% for the second.

First: CCOC(CNc1ncnc2sc(-c3ccccc3)cc12)OCC
Second: c1ccc(-n2nnc(-c3nccs3)n2)cc1
The “hERG current change (%, negative = inhibition) at 1uM” value of the first is higher: 15.6% for the first, 14.4% for the second.

First: O=C(O)C1C2C=CC(O2)C1C(=O)NCCC1=CCCCC1 (centres unmarked)
Second: O=C(CSCC(=O)N1CCCCC1)OCC(=O)c1c[nH]c2ccccc12
The “hERG current change (%, negative = inhibition) at 1uM” value of the first is higher: 1.52% for the first, -6.9% for the second.

Compared with C#CCOc1c(Cl)cc(/C=C2/C(=O)ON=C2C)cc1OC, COc1cc(CC(=O)O)c(C(C)=O)cc1OC is lower in “hERG current change (%, negative = inhibition) at 1uM” value: 15.4% for the first, 7.16% for the second.

Compared with O=C1c2cccc3c(N4CCCCC4)ccc(c23)C(=O)N1c1ccc(O)cc1, COc1ccc(-n2nc(C(=O)NCC(=O)N3CCN(c4ccccc4F)CC3)c3ccccc3c2=O)cc1 is lower in “hERG current change (%, negative = inhibition) at 1uM” value: 12.7% for the first, 9.48% for the second.

Compared with C(=N\NC(=Nc1ccccc1)c1ccccn1)/c1ccccn1, CC(NC(=O)c1nn(C)c(=O)c2ccccc12)c1ccccc1 (centres unmarked) is lower in “hERG current change (%, negative = inhibition) at 1uM” value: 8.11% for the first, 5.09% for the second.

Going from Cc1ccc(OCCn2c(SCCO)nc3c(N)ncnc32)cc1 to Cc1nn(CCOc2ccc(Br)cc2)c(C)c1[N+](=O)[O-], the “hERG current change (%, negative = inhibition) at 1uM” value rises from 4.54% to 6.87%.

First: CCC(C(=O)NCCCN1CCOCC1)n1c2ccccc2c2nc(=O)cc(C)n21 (centres unmarked)
Second: Cc1nnc(-c2ccccc2)nc1N1CCOCC1
The “hERG current change (%, negative = inhibition) at 1uM” value of the first is higher: 7.11% for the first, -0.422% for the second.

Going from Cc1ccc(NC(=O)CN(C)C(=O)C(C)N2CCN(Cc3ccccc3C)CC2)cc1 (centres unmarked) to COc1ccc(C(=O)CN2CCN(c3cc(C)nc4ccccc34)CC2)cc1, the “hERG current change (%, negative = inhibition) at 1uM” value falls from 1.75% to -22.1%.

Compared with O=C(CSc1ccc(Cl)cc1)NNC(=O)c1cccnc1, COc1cccc(N(CC(=O)NCCSc2ccc(Cl)cc2)S(C)(=O)=O)c1 is lower in “hERG current change (%, negative = inhibition) at 1uM” value: 4.33% for the first, -13.1% for the second.

Going from CNC(=S)N1N=C(c2ccc(C)cc2)CC1c1ccc(N(C)C)cc1 (centres unmarked) to Cc1ccc(S(=O)(=O)NCCCNS(=O)(=O)c2ccc(C)cc2)cc1, the “hERG current change (%, negative = inhibition) at 1uM” value rises from 10.5% to 11%.

Compared with CCN1CCN(C(=O)C2CCN(C(=O)c3cc4sccc4n3CC)CC2)CC1, COc1cccc(N2CCN(CC(=O)Nc3nc4c(s3)CC(C)CC4)CC2)c1 (centres unmarked) is lower in “hERG current change (%, negative = inhibition) at 1uM” value: 8.39% for the first, -3.53% for the second.

First: CC(C)CN(C(=O)COC(=O)c1ccc2c(c1)OCCO2)c1c(N)n(Cc2ccccc2)c(=O)[nH]c1=O
Second: CCCCn1c(N)c(N(CCC(C)C)C(=O)c2cc(Cl)nc3ccccc23)c(=O)[nH]c1=O
The “hERG current change (%, negative = inhibition) at 1uM” value of the first is higher: 16.1% for the first, 5.29% for the second.

Compared with O=c1c2c3c(sc2[nH]c(=S)n1Cc1ccco1)CCC3, O=C(NC1CCCC1)c1ccc(Cn2c(=O)[nH]c3ccsc3c2=O)cc1 is lower in “hERG current change (%, negative = inhibition) at 1uM” value: 14.4% for the first, 8.75% for the second.

Going from O=C(N/N=C/c1ccco1)c1ccc(NC(=O)c2ccc(Cl)cc2)cc1 to C=CCNC(=O)c1ccc(CNS(=O)(=O)c2ccc(NC(C)=O)cc2)cc1, the “hERG current change (%, negative = inhibition) at 1uM” value rises from 15.1% to 17.3%.

Going from COc1ccc(-c2cc(=O)oc3c(C)c(OC(=O)c4cccs4)ccc23)cc1 to COc1ccc(C(=O)N2c3ccccc3C(=O)OC2c2ccc3c(c2)OCO3)cc1 (centres unmarked), the “hERG current change (%, negative = inhibition) at 1uM” value falls from 18.2% to 7.82%.

Compared with Fc1ccc(-n2cc(CNCCc3cccnc3)c(-c3ccccc3Cl)n2)cc1, O=C1C=C(c2cccc3c2oc2ccccc23)C[C@@H](c2ccc(F)cc2)C1 is higher in “hERG current change (%, negative = inhibition) at 1uM” value: -10% for the first, -7.31% for the second.

First: Cc1ccc(Cn2nc(C)c(NC(=O)c3cc(-c4ccco4)on3)c2C)cc1
Second: Cc1csc(NC(=O)c2cccc(Cn3nc(C)c(Br)c3C)c2)n1
The “hERG current change (%, negative = inhibition) at 1uM” value of the first is lower: -0.169% for the first, 7.2% for the second.

Compared with Cc1ccc(/C=N/n2c(C)nc3ccccc3c2=O)o1, CCOc1cccc(-c2c(C(=O)N/N=C/c3ccc(C)o3)nnn2-c2nonc2N)c1 is higher in “hERG current change (%, negative = inhibition) at 1uM” value: 10.2% for the first, 13.7% for the second.

Compared with CC1CCCCC1NC1=NCCCS1 (centres unmarked), CC1CCN(c2cc(=O)n(C3CCCCC3)c(=O)[nH]2)CC1 is lower in “hERG current change (%, negative = inhibition) at 1uM” value: 14.1% for the first, 12.3% for the second.

Compared with C#CCSc1nnc(-c2c[nH]c3ccccc23)n1C, NC(=O)CSc1nnc(-c2ccccn2)n1N is lower in “hERG current change (%, negative = inhibition) at 1uM” value: 15.1% for the first, 12.4% for the second.

Compared with CCCC1=C(C(=O)OCC)C(c2ccco2)n2ncnc2N1 (centres unmarked), CCOC(=O)C1=C(COC(=O)COc2ccc(C(=O)CC)cc2)NC(=O)NC1C (centres unmarked) is lower in “hERG current change (%, negative = inhibition) at 1uM” value: 11% for the first, 7.13% for the second.

First: CC1=CCC2C(=O)N(c3cccc(C(=O)NC(C)c4ccccc4)c3)C(=O)C2C1 (centres unmarked)
Second: O=C(Nc1ccccc1)c1cccc(N2C(=O)C3C4C=CC(C4)C3C2=O)c1 (centres unmarked)
The “hERG current change (%, negative = inhibition) at 1uM” value of the first is higher: 9.7% for the first, 7.22% for the second.

First: CCC(C)NC(=O)[C@H](CSCc1ccccc1)N1Cc2ccccc2C1=O (some centres unmarked)
Second: O=C(CCc1nc2ccccc2c(=O)[nH]1)Nc1nnc(SCc2ccccc2)s1
The “hERG current change (%, negative = inhibition) at 1uM” value of the first is lower: -12.2% for the first, -0.601% for the second.

First: CCCCn1c(O)c(C(CC)=Nc2ccc(OC)cc2OC)c(=O)[nH]c1=O
Second: COCCN(C(=O)c1sc2ccccc2c1Cl)c1c(N)n(CC(C)C)c(=O)[nH]c1=O
The “hERG current change (%, negative = inhibition) at 1uM” value of the first is lower: 4.73% for the first, 13.9% for the second.

First: O=C(c1ccccc1)N1CCN(C(=O)c2ccc([N+](=O)[O-])cc2)CC1
Second: O=C(Nc1cccc2c1CCCC2)c1cc([N+](=O)[O-])ccc1Cl
The “hERG current change (%, negative = inhibition) at 1uM” value of the first is lower: -4.32% for the first, -0.62% for the second.

Going from CN(C)Cc1nc2c(c(=O)[nH]1)C(C)(C)Cc1ccccc1-2 to CCN(CC)CCCn1c2c(c(SCC(=O)N3CCCc4ccccc43)nc1=O)CCC2, the “hERG current change (%, negative = inhibition) at 1uM” value rises from 0.776% to 9.45%.

Going from Cc1sc(N/N=C/c2cccnc2)nc1-c1ccc(Cl)cc1 to COc1ccc(-c2c(C(F)(F)F)nn(C)c2NC(=O)c2cccnc2)cc1, the “hERG current change (%, negative = inhibition) at 1uM” value falls from 9.56% to 5.23%.

Going from CC1CN(S(=O)(=O)c2ccc(C(=O)O)cc2)CC(C)O1 (centres unmarked) to CCNS(=O)(=O)c1ccc(NC(=O)Nc2ccc3c(c2)OCO3)cc1, the “hERG current change (%, negative = inhibition) at 1uM” value falls from 13.7% to 8.21%.

Compared with Cc1csc(NC(=O)c2ccc3c(=O)n4c(nc3c2)CCCCC4)n1, CCOC(=O)Cc1csc(NC(=O)COc2c(C)cccc2C)n1 is higher in “hERG current change (%, negative = inhibition) at 1uM” value: -35.7% for the first, 12.5% for the second.

Going from Cc1ccc2oc(=O)c3cnn(CC(=O)NCCc4ccsc4)c3c2c1 to Cc1ccc2c(c1)c1nnc(SCC(=O)Nc3cccc(Cl)c3C)nc1n2CC(=O)O, the “hERG current change (%, negative = inhibition) at 1uM” value rises from 4.49% to 15.5%.

Going from Fc1ccc(-c2noc(-c3ccc4c(c3)CCO4)n2)cc1 to c1cncc(-c2nc(-c3ccc4c(c3)OCCO4)cs2)c1, the “hERG current change (%, negative = inhibition) at 1uM” value rises from -0.996% to 9.93%.

First: COc1ccccc1CN1CC(C(=O)NCCN2CCNC2=O)CCC1=O (centres unmarked)
Second: Cc1cccc(NC(=O)Cn2c(=O)n(CCC(=O)NC3CCCC3)c(=O)c3ccccc32)c1
The “hERG current change (%, negative = inhibition) at 1uM” value of the first is higher: 15.8% for the first, 12.1% for the second.

Compared with COc1ccc(N2C(=O)CCC(C(=O)N(C)CCc3ccccn3)C2c2ccc(OC)c(OC)c2)cc1 (centres unmarked), CCc1ccc(OCC2c3cc(OC)c(OC)cc3CCN2C(=S)NC)cc1 (centres unmarked) is higher in “hERG current change (%, negative = inhibition) at 1uM” value: 4.18% for the first, 4.64% for the second.

First: COc1cc(C2C3=C(CCCC3=O)Nc3[nH]n(-c4ccccc4)c(=O)c32)cc(OC)c1OC (centres unmarked)
Second: C=CCc1ccc(OCC(O)COc2ccc(CC=C)cc2OC)c(OC)c1
The “hERG current change (%, negative = inhibition) at 1uM” value of the first is lower: 9.61% for the first, 10.3% for the second.

Going from Cc1nc(NC(=O)C(C)Oc2cccc(Cl)c2)sc1C(=O)N(C)C (centres unmarked) to Cc1cccc(C(=O)NCC(=O)OC(C)C(=O)Nc2ccc(Cl)cn2)c1 (centres unmarked), the “hERG current change (%, negative = inhibition) at 1uM” value falls from 12.3% to -1.33%.

Going from Cc1cccc(N=C2NC(=O)/C(=C/C=C/c3ccco3)S2)c1C to O=C(N=C1SCC(=O)N1c1ccccc1Cl)c1ccco1, the “hERG current change (%, negative = inhibition) at 1uM” value rises from 13.7% to 18.4%.

First: CNS(=O)(=O)c1cccc(C(=O)OCC(=O)c2ccc[nH]2)c1
Second: O=C(c1ccccc1)c1cncc(Br)c1
The “hERG current change (%, negative = inhibition) at 1uM” value of the first is higher: 8.19% for the first, 4.91% for the second.

First: c1ccc2[nH]c(CSc3nnc(-c4ccncc4)o3)nc2c1
Second: Nc1ccc(-c2nc3ncccc3o2)cc1
The “hERG current change (%, negative = inhibition) at 1uM” value of the first is lower: -16.4% for the first, 16.3% for the second.

Compared with c1ccc(Cn2nnc3c(NCC4CCCO4)nc(C4CC4)nc32)cc1 (centres unmarked), NNC(=O)c1ccc(COc2cccc3ccccc23)cc1 is higher in “hERG current change (%, negative = inhibition) at 1uM” value: 0.112% for the first, 6.19% for the second.

Going from Cc1[nH]nc2c1C(=O)CCC2 to N#CC(c1ccccc1)c1ccc(=O)[nH]n1 (centres unmarked), the “hERG current change (%, negative = inhibition) at 1uM” value falls from 9.57% to 6.17%.

First: CC(C)c1ccc2oc(-c3ccc(NC(=O)c4ncn[nH]4)cc3)nc2c1
Second: CN(C(=O)CCNC(=O)Cn1cnc2ccccc2c1=O)c1ccc(Br)cc1
The “hERG current change (%, negative = inhibition) at 1uM” value of the first is lower: 7.04% for the first, 10.7% for the second.

For COc1ccc(OCc2nnc(SCC(N)=O)n2N)cc1, the “hERG current change (%, negative = inhibition) at 1uM” value was 12.8%.
